Where two headings read alike, the source gives them in different places. For at least one compound, name, drawing or mass did not settle the structure.
Assays:
Assay type in all cases: binding, SARS-COV-2
[1] = molecular target: T1, Spike protein RBD domain (SRBD - wt) (Severe acute respiratory syndrome coronavirus 2, UniProt P0DTC2)
T1 construct: using Spike protein RBD domain as a target

SRBD - wt = molecular target: T2, SRBD - wt (Severe acute respiratory syndrome coronavirus 2, UniProt P0DTC2)
T2 construct: using Spike protein RBD domain as a target

Full spike - wt = molecular target: T3, Full spike - wt (Severe acute respiratory syndrome coronavirus 2, UniProt P0DTC2)
T3 construct: Full spike - wt

Structure (SMILES) | Kd [1] [nM] | Kd (SRBD - wt; BLI, SRBD - wt, global 1:2 fitting) [nM] | Kd (Full spike - wt; BLI, Full spike - wt, global 1:2 fitting) [nM] | Kd (SRBD - wt) [nM] | Kd (Full spike - wt) [nM]
COC[C@H](NC(=O)[C@@H](CCCCN)NC(=O)[C@H]1c2ccccc2C(=O)N(CCCNC(=O)Cc2ccc(CNC(=O)[C@@H](NC(=O)[C@@H](CCCCN)NC(=O)[C@H]3c4ccccc4C(=O)N(CCCNC(=O)Cc4ccc(CNC(=O)[C@H](CC5CC5)NC(=O)[C@H]5c6ccccc6C(=O)N(CCCNC(=O)[C@@H](C)NC(=O)Cc6ccc(CNC(=O)[C@H](C)NC(=O)[C@@H](CCCCN)NC(=O)[C@H]7c8ccccc8C(=O)N(CCCNC(=O)Cc8ccc(CNC(=O)[C@H](C)NC(=O)CNC(=O)[C@H]9c%10ccccc%10C(=O)N(CCCNC(=O)Cc%10ccc(CNC(=O)[C@H](C)NC(=O)[C@@H](CCC(=O)O)NC(=O)[C@H]%11c%12ccccc%12C(=O)N(CCCNC(=O)Cc%12ccc(CNC(=O)[C@H](Cc%13ccc(F)cc%13)NC(=O)[C@H]%13c%14ccccc%14C(=O)N(CCCNC(=O)[C@@H](CCC(=O)O)NC(=O)Cc%14ccc(CNC(=O)[C@H](C)NC(=O)CNC(=O)[C@H]%15c%16ccccc%16C(=O)N(CCCN)[C@@H]%15c%15ccc(CCC(=O)O)cc%15)cc%14)[C@@H]%13c%13cccc(Oc%14ccccc%14)c%13)cc%12)[C@@H]%11c%11ccc(CCC(=O)O)cc%11)cc%10)[C@@H]9c9cccnc9)cc8)[C@@H]7c7ccc(CCC(=O)O)cc7)cc6)[C@@H]5c5cccc(Oc6ccccc6)c5)cc4)[C@@H]3c3ccccc3)C(C)C)cc2)[C@@H]1c1ccc(O)cc1)C(=O)NCc1ccc(CC(N)=O)cc1 [Technein 16838-89-7] | 85 | 20 | 7 | – | –
COC[C@H](NC(=O)[C@H]1c2ccccc2C(=O)N(CCCNC(=O)[C@@H](C)NC(=O)Cc2ccc(CNC(=O)[C@H](Cc3ccc(F)cc3)NC(=O)[C@H]3c4ccccc4C(=O)N(CCCNC(=O)CNC(=O)Cc4ccc(CNC(=O)[C@H](Cc5ccc(F)cc5)NC(=O)[C@H]5c6ccccc6C(=O)N(CCCNC(=O)[C@@H](CCC(=O)O)NC(=O)Cc6ccc(CNC(=O)[C@H](C)NC(=O)[C@H]7c8ccccc8C(=O)N(CCCNC(=O)[C@@H](C)N)[C@@H]7c7ccc(CCC(=O)O)cc7)cc6)[C@@H]5c5cccc(Oc6ccccc6)c5)cc4)[C@@H]3c3ccc(O)cc3)cc2)[C@@H]1c1ccc(O)cc1)C(=O)NCc1ccc(CC(=O)NCC(=O)NCCCN2C(=O)c3ccccc3[C@H](C(=O)N[C@@H](CC3CC3)C(=O)NCc3ccc(CC(=O)N[C@H](CCC(=O)O)C(=O)NCCCN4C(=O)c5ccccc5[C@H](C(=O)N[C@@H](C)C(=O)NCc5ccc(CC(=O)NCCCN6C(=O)c7ccccc7[C@H](C(=O)N[C@H](CCCCN)C(=O)N[C@H](C(=O)NCc7ccc(CC(=O)N[C@H](C)C(=O)NCCCN8C(=O)c9ccccc9[C@H](C(=O)N[C@@H](CC9CC9)C(=O)NCc9ccc(CC(N)=O)cc9)[C@H]8c8ccc(CCC(=O)O)cc8)cc7)C(C)C)[C@H]6c6ccccc6)cc5)[C@H]4c4cccnc4)cc3)[C@H]2c2cccnc2)cc1 [Technein 16838-89-8] | 96 | – | – | 16 | 2
C[C@H](NC(=O)[C@@H](CCCCN)NC(=O)[C@H]1c2ccccc2C(=O)N(CCCN)[C@@H]1c1ccc(CCC(=O)O)cc1)C(=O)NCc1ccc(CC(=O)N[C@H](CCC(=O)O)C(=O)NCCCN2C(=O)c3ccccc3[C@H](C(=O)N[C@@H](Cc3ccc(F)cc3)C(=O)NCc3ccc(CC(=O)NCCCN4C(=O)c5ccccc5[C@H](C(=O)N[C@H](CCCCN)C(=O)NCC(=O)NCc5ccc(CC(=O)N[C@H](CCCCN)C(=O)NCCCN6C(=O)c7ccccc7[C@H](C(=O)N[C@@H](Cc7ccc(F)cc7)C(=O)NCc7ccc(CC(=O)NCCCN8C(=O)c9ccccc9[C@H](C(=O)N[C@H](CCC(=O)O)C(=O)N[C@@H](Cc9ccc(F)cc9)C(=O)NCc9ccc(CC(=O)N[C@H](CCC(=O)O)C(=O)NCCCN%10C(=O)c%11ccccc%11[C@H](C(=O)N[C@@H](C)C(=O)NCc%11ccc(CC(=O)NCCCN%12C(=O)c%13ccccc%13[C@H](C(=O)N[C@H](CCC(=O)O)C(=O)N[C@@H](Cc%13ccccc%13)C(=O)NCc%13ccc(CC(=O)NCCCN%14C(=O)c%15ccccc%15[C@H](C(=O)NCC(=O)N[C@@H](Cc%15ccc(F)cc%15)C(=O)NCc%15ccc(CC(N)=O)cc%15)[C@H]%14c%14ccc(CCC(=O)O)cc%14)cc%13)[C@H]%12c%12ccc(O)cc%12)cc%11)[C@H]%10c%10cccnc%10)cc9)[C@H]8c8cccnc8)cc7)[C@H]6c6ccccc6)cc5)[C@H]4c4ccccc4)cc3)[C@H]2c2cccc(Oc3ccccc3)c2)cc1 [Technein 16838-89-16] | 119 | – | – | – | –
CC(C)[C@H](NC(=O)[C@@H](CCC(=O)O)NC(=O)[C@H]1c2ccccc2C(=O)N(CCCNC(=O)Cc2ccc(CNC(=O)[C@H](Cc3ccc(F)cc3)NC(=O)[C@H]3c4ccccc4C(=O)N(CCCNC(=O)[C@@H](C)NC(=O)Cc4ccc(CNC(=O)[C@H](CC5CC5)NC(=O)[C@@H](CCCCN)NC(=O)[C@H]5c6ccccc6C(=O)N(CCCNC(=O)Cc6ccc(CNC(=O)[C@H](C)NC(=O)[C@@H](C)NC(=O)[C@H]7c8ccccc8C(=O)N(CCCNC(=O)Cc8ccc(CNC(=O)[C@H](C)NC(=O)[C@@H](CCCCN)NC(=O)[C@H]9c%10ccccc%10C(=O)N(CCCN)[C@@H]9c9ccc(CCC(=O)O)cc9)cc8)[C@@H]7c7ccccc7)cc6)[C@@H]5c5ccc(CCC(=O)O)cc5)cc4)[C@@H]3c3ccc(CCC(=O)O)cc3)cc2)[C@@H]1c1cccc(Oc2ccccc2)c1)C(=O)NCc1ccc(CC(=O)NCCCN2C(=O)c3ccccc3[C@H](C(=O)N[C@H](C)C(=O)N[C@@H](Cc3ccc(F)cc3)C(=O)NCc3ccc(CC(=O)N[C@H](C)C(=O)NCCCN4C(=O)c5ccccc5[C@H](C(=O)N[C@@H](C)C(=O)NCc5ccc(CC(=O)NCC(=O)NCCCN6C(=O)c7ccccc7[C@H](C(=O)N[C@@H](C)C(=O)NCc7ccc(CC(N)=O)cc7)[C@H]6c6ccc(O)cc6)cc5)[C@H]4c4cccc(Oc5ccccc5)c4)cc3)[C@H]2c2ccccc2)cc1 [Technein 16838-89-17] | 185 | – | – | – | –

— patent publication US20260042867A1, “ANTIBODY REPURPOSING” (priority 2022, published 2026)
